{"source": "PubChem BioAssay (Tox21)", "key": {"[1]": {"experiment": "qHTS assay to identify small molecule that activate the aryl hydrocarbon receptor (AhR) signaling pathway - cell viability counter screen (AID 743086); also: nearly all actives have a fitted effect of over 45% in size", "how_it_was_run": "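HepG2-AhR-luc (HG2L7.5c1) cells, 4000/well, treated 24 h at 37 C with compound; viability measured as CellTiter-Fluor fluorescence after 30 min in the same wells as the luciferase read.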"}, "[2]": {"target": "Peroxisome proliferator-activated receptor gamma (Homo sapiens) (UniProt P37231)", "sequence (P37231 whole entry, looked up)": "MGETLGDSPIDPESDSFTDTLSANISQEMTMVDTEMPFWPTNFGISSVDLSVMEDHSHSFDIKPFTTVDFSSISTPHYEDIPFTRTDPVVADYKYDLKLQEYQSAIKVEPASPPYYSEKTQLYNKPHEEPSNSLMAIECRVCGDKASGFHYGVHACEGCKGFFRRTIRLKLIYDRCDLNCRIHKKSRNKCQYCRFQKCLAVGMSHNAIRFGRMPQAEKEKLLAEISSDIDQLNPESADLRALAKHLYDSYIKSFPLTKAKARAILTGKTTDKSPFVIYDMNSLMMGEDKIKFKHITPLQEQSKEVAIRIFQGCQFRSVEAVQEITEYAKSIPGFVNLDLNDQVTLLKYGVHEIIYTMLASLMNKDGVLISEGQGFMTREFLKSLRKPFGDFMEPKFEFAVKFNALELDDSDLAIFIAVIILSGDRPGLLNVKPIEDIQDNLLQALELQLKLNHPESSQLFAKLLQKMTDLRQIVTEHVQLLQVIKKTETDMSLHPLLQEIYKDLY", "experiment": "qHTS assay to identify small molecule agonists of the peroxisome proliferator-activated receptor gamma (PPARg) signaling pathway (AID 743094; active = well fitted activation curve with a large enough effect in the signal ratio in the repeat runs, not every such curve was filed as active; inconclusive = weak or mixed curves, or effect the other way; inactive = no such curve, though single readings can be large or run the other way; the % refers to the signal ratio; as to activation: % is scaled to controls: 0 for no effect and ±100 for the full control effect)", "conditions": "HEK293H PPARg-UAS-bla, beta-lactamase FRET ratio, 17 h; activation: at 57 µM (top of the series) unless noted", "how_it_was_run": "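Following 5 h plating at 37C, PPARg-bla HEK293H cells receive compound or DMSO for 17 h; fluorescence intensity is recorded after LiveBLAzer B/G loading for 1 h at room temperature.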"}, "[3]": {"target": "Peroxisome proliferator-activated receptor gamma (Homo sapiens) (UniProt P37231)", "experiment": "qHTS assay to identify small molecule antagonists of the peroxisome proliferator-activated receptor gamma (PPARg) signaling pathway (AID 743191; calls by dose curve; also: nearly all actives have a fitted effect of over 30% in size)", "conditions": "HEK293H PPARg-UAS-bla, beta-lactamase ratio, antagonist, 17 h; ratio activity, negative = inhibition: at 62.6 µM (top of the series) unless noted", "how_it_was_run": "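GeneBLAzer PPARg UAS-bla HEK293H cells, 5 h post-plating, exposed to compounds 17 h at 37C. LiveBLAzer B/G FRET substrate added for 1 h at room temperature; beta-lactamase reporter read by fluorescence intensity.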"}, "[4]": {"experiment": "qHTS assay to identify small molecule antagonists of the peroxisome proliferator-activated receptor gamma (PPARg) signaling pathway - cell viability counter screen (AID 743194); also: nearly all actives have a fitted effect of over 55% in size", "conditions": "PPARg-bla HEK293H viability, CellTiter-Glo luminescence, 17 h, co-treated with 50 nM rosiglitazone; activity change, negative = cytotoxicity: at 62.6 µM (top of the series) unless noted", "how_it_was_run": "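Cytotoxicity counter screen in PPARg-bla HEK293H cells, same wells as reporter assay. Compounds plus 50 nM rosiglitazone (final) for 17 h at 37 C, then viability read by CellTiter-Glo luminescence.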"}, "[5]": {"experiment": "qHTS assay for small molecule agonists of the antioxidant response element (ARE) signaling pathway (AID 743202; active = well fitted activation curve with a large enough effect in the signal ratio in the repeat runs, not every such curve was filed as active; inconclusive = weak or mixed curves, or effect the other way; inactive = no such curve, though single readings can be large or run the other way; the % refers to the signal ratio)", "conditions": "HepG2 ARE-bla reporter, beta-lactamase FRET, 16 h; activation: at 73.3 µM (top of the series) unless noted", "how_it_was_run": "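Agonist mode reporter screen: HepG2 cells with ARE-controlled beta-lactamase are incubated with test compounds for 16 h at 37 C, and beta-lactamase activity is measured as fluorescence of cleaved B/G FRET substrate.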"}, "[6]": {"experiment": "qHTS assay for small molecule agonists of the antioxidant response element (ARE) signaling pathway - cell viability counter screen (AID 743203; calls by dose curve; also: nearly all actives have a fitted effect of over 55% in size)", "conditions": "ARE-bla HepG2 viability, CellTiter-Glo luminescence, 16 h; viability change, negative = cytotoxic: at 73.3 µM (top of the series)", "how_it_was_run": "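Compounds in DMSO were pinned onto ARE-bla HepG2 cells plated 5 hrs earlier at 2,000 cells/well. Sixteen hours later at 37C/5% CO2, CellTiter-Glo was added and luminescence measured after 30 min at room temperature.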"}, "[7]": {"experiment": "qHTS assay for small molecule activators of the heat shock response signaling pathway - cell viability counter screen (AID 743209); also: nearly all actives have a fitted effect of over 50% in size", "conditions": "HSE-bla HeLa viability, CellTiter-Glo luminescence, 5 h; activity change, negative = cytotoxicity: at 62.6 µM (top of the series) unless noted", "how_it_was_run": "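Counter screen for cytotoxicity in HeLa HSE-bla reporter cells. Treatment was 5 h at 37 C; viability was detected by luminescent ATP assay (CellTiter-Glo) in the same wells as the beta-lactamase read.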"}, "[8]": {"experiment": "qHTS assay for small molecule activators of the heat shock response signaling pathway (AID 743210; active = well fitted activation curve with a large enough effect in the signal ratio in the repeat runs, with a control signal flat, not every such curve was filed as active; inconclusive = weak or mixed curves; the % refers to the signal ratio)", "conditions": "HeLa HSE-bla reporter, beta-lactamase ratio, 5 h; activation: at 62.6 µM (top of the series)", "how_it_was_run": "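Quantitative high-throughput format using an engineered HeLa line in which heat shock response elements drive beta-lactamase; after 5 h with compound, cells received a B/G FRET substrate and fluorescence was read.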"}, "[9]": {"experiment": "qHTS assay to identify small molecule agonists of the peroxisome proliferator-activated receptor delta (PPARd) signaling pathway - cell viability counter screen (AID 743211); also: nearly all actives have a fitted effect of over 55% in size", "conditions": "PPARd-bla HEK293H viability, CellTiter-Glo luminescence, 17 h; activity change, negative = cytotoxicity: at 62.6 µM (top of the series)", "how_it_was_run": "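Tox21 library compounds, delivered in DMSO, were incubated 17 h with PPARd-bla HEK293H cells; cytotoxicity was taken from CellTiter-Glo luminescence read 30 min after reagent addition.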"}, "[10]": {"target": "Peroxisome proliferator-activated receptor delta (Homo sapiens) (UniProt Q03181)", "sequence (Q03181 whole entry, looked up)": "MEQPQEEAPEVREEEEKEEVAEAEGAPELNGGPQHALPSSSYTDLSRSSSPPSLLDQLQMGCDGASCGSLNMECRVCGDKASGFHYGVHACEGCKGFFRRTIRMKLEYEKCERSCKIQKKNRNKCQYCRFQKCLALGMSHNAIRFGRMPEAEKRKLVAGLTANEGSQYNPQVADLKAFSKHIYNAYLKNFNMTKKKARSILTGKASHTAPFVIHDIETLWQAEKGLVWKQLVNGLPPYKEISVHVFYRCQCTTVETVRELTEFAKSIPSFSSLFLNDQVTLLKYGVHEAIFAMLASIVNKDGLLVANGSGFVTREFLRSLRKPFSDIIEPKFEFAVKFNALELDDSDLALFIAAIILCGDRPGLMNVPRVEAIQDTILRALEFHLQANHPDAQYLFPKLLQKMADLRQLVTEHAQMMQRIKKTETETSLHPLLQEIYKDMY", "experiment": "qHTS assay to identify small molecule agonists of the peroxisome proliferator-activated receptor delta (PPARd) signaling pathway (AID 743212; calls by dose curve)", "conditions": "HEK293H PPARd-UAS-bla, beta-lactamase FRET ratio, 17 h; activation: at 62.6 µM (top of the series) unless noted", "how_it_was_run": "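Quantitative high-throughput agonist screen in a HEK293H beta-lactamase reporter line under UAS control. Compounds in DMSO, at 37 C. Fluorescence read after 2 h with FRET substrate at room temperature.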"}, "[11]": {"experiment": "qHTS assay to identify small molecule antagonists of the peroxisome proliferator-activated receptor delta (PPARd) signaling pathway - cell viability counter screen (AID 743213); also: nearly all actives have a fitted effect of over 50% in size", "conditions": "PPARd-bla HEK293H viability, CellTiter-Glo luminescence, 17 h; viability change, negative = cytotoxic: at 62 µM (top of the series) unless noted", "how_it_was_run": "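HEK293H cells with the PPARd UAS-bla reporter, co-treated 17 h at 37 C with compounds and L165041 (300 nM final), were lysed with CellTiter-Glo. Luminescence indicated viable cell content.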"}, "[12]": {"target": "Peroxisome proliferator-activated receptor delta (Homo sapiens) (UniProt Q03181)", "experiment": "qHTS assay to identify small molecule antagonists of the peroxisome proliferator-activated receptor delta (PPARd) signaling pathway (AID 743215; active = well fitted inhibition curve with a large enough effect in the signal ratio in the repeat runs, not every such curve was filed as active; inconclusive = weak or mixed curves, or effect the other way; inactive = no such curve, though single readings can be large or run the other way; the % refers to the signal ratio)", "conditions": "HEK293H PPARd-UAS-bla, beta-lactamase FRET ratio, antagonist, 17 h; ratio activity, negative = inhibition: at 62 µM (top of the series) unless noted", "how_it_was_run": "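With L165041 present at 300 nM final, compounds were incubated 17 h at 37 C on PPARd UAS-bla HEK293H cells. A FRET-based beta-lactamase substrate was then applied for 2 h at room temperature and fluorescence intensity recorded.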"}, "[13]": {"target": "Bile acid receptor (Homo sapiens) (UniProt Q96RI1)", "sequence (Q96RI1 whole entry, looked up)": "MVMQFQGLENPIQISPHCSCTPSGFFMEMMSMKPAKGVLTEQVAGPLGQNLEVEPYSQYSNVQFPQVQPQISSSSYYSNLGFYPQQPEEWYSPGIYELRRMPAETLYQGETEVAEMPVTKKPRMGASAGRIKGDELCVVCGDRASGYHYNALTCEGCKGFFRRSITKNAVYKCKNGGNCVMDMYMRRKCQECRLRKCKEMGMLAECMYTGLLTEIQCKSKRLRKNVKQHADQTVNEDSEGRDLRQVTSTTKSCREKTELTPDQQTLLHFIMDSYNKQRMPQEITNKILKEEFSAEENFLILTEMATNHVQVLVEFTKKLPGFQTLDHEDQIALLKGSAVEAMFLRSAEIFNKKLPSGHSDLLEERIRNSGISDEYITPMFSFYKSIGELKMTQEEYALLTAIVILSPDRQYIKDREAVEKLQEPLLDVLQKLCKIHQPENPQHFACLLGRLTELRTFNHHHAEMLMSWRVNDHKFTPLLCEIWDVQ", "experiment": "qHTS assay to identify small molecule antagonists of the farnesoid-X-receptor (FXR) signaling pathway (AID 743217; active = well fitted inhibition curve with a large enough effect in the signal ratio in the repeat runs, not every such curve was filed as active; inconclusive = weak or mixed curves, or effect the other way; inactive = no such curve, though single readings can be large or run the other way; the % refers to the signal ratio)", "conditions": "HEK293T FXR-UAS-bla, beta-lactamase ratio, CDCA-stimulated, 16 h; activity change, negative = inhibition: at 62.6 µM (top of the series) unless noted", "how_it_was_run": "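In this cell-based antagonist screen, inhibition of CDCA-driven (50 uM final) UAS-beta-lactamase expression in HEK 293T cells was measured by FRET fluorescence following 16 h compound exposure at 37 °C.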"}, "[14]": {"experiment": "qHTS assay to identify small molecule agonists of the farnesoid-X-receptor (FXR) signaling pathway - cell viability counter screen (AID 743218); also: nearly all actives have a fitted effect of over 45% in size", "conditions": "FXR-bla HEK293T viability, CellTiter-Glo luminescence, 16 h; viability change, negative = cytotoxic: at 62.6 µM (top of the series) unless noted", "how_it_was_run": "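After 16 h at 37 C with test compounds, FXR-bla HEK 293T cells were given LiveBLAzer B/G substrate for 2 h at RT and then CellTiter-Glo; luminescence was taken after 30 min.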"}, "[15]": {"target": "Bile acid receptor (Homo sapiens) (UniProt Q96RI1)", "experiment": "qHTS assay to identify small molecule agonists of the farnesoid-X-receptor (FXR) signaling pathway (AID 743220; active = well fitted activation curve with a large enough effect in the signal ratio in the repeat runs, not every such curve was filed as active; inconclusive = weak or mixed curves, or effect the other way; the % refers to the signal ratio)", "conditions": "HEK293T FXR-UAS-bla, beta-lactamase FRET ratio, 16 h; activation: at 62.6 µM (top of the series) unless noted", "how_it_was_run": "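Beta-lactamase reporter under UAS control in GeneBLAzer FXR HEK 293T cells (5000/well) measured with LiveBLAzer FRET substrate after 2 h at room temperature. Compound exposure lasted 16 h at 37C.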"}, "[16]": {"experiment": "qHTS assay to identify small molecule antagonists of the farnesoid-X-receptor (FXR) signaling pathway - cell viability counter screen (AID 743221; active = well fitted cell-killing curve with a large enough effect in the repeat runs, not every such curve was filed as active; inconclusive = weak or mixed curves, or effect the other way; inactive = no such curve, though single readings can be large or run the other way; also: nearly all actives have a fitted effect of over 50% in size)", "conditions": "FXR-bla HEK293T viability, CellTiter-Glo luminescence, 16 h; activity change, negative = cytotoxicity: at 62.6 µM (top of the series)", "how_it_was_run": "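Cytotoxicity is taken from ATP luminescence (CellTiter-Glo, 30 min, room temperature) in FXR-bla HEK 293T cells previously incubated 16 h at 37 C with compound and chenodeoxycholic acid at 50 uM final.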"}, "[17]": {"target": "Vitamin D3 receptor (Homo sapiens) (UniProt P11473)", "sequence (P11473 whole entry, looked up)": "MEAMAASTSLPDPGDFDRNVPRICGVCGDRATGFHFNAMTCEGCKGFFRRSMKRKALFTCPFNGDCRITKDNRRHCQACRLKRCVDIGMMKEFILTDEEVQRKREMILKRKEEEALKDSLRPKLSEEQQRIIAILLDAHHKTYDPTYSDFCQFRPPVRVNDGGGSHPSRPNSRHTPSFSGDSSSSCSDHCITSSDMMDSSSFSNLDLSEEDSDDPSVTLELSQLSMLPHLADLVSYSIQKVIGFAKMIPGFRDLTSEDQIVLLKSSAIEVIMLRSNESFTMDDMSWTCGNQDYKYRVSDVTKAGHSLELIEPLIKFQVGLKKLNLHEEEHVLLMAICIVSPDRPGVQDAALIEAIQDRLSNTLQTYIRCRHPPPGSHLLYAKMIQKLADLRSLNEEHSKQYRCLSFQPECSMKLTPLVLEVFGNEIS", "experiment": "qHTS assay to identify small molecule agonists of the vitamin D receptor (VDR) signaling pathway (AID 743222; calls by dose curve; as to activation: % is scaled to controls: 0 for no effect and ±100 for the full control effect)", "conditions": "HEK293T VDR-UAS-bla, beta-lactamase FRET ratio, 16 h; activation: at 63.5 µM (top of the series) unless noted", "how_it_was_run": "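VDR-bla cells were seeded, left 4 h, treated with compounds in DMSO for 16 h, incubated 2 h at RT with B/G FRET substrate, and read for fluorescence.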"}, "[18]": {"target": "Vitamin D3 receptor (Homo sapiens) (UniProt P11473)", "experiment": "qHTS assay to identify small molecule antagonists of the vitamin D receptor (VDR) signaling pathway (AID 743223; active = well fitted inhibition curve with a large enough effect in the signal ratio in the repeat runs, not every such curve was filed as active; inconclusive = weak or mixed curves, or effect the other way; inactive = no such curve, though single readings can be large or run the other way; the % refers to the signal ratio)", "conditions": "VDR-UAS-bla HEK293T, beta-lactamase FRET ratio, 16 h; activity change, negative = inhibition: at 61 µM (top of the series) unless noted", "how_it_was_run": "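Quantitative HTS in VDR-bla reporter cells stimulated with 1alpha,25-dihydroxyvitamin D3, 3 nM final. Compound exposure 16 h, 37C, 5% CO2. Read-out: beta-lactamase FRET substrate fluorescence, 2 h RT.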"}, "[19]": {"experiment": "qHTS assay to identify small molecule antagonists of the vitamin D receptor (VDR) signaling pathway - cell viability counter screen (AID 743225); also: nearly all actives have a fitted effect of over 50% in size", "conditions": "VDR-bla HEK293T viability, CellTiter-Glo luminescence, 16 h; viability change, negative = cytotoxic: at 61 µM (top of the series) unless noted", "how_it_was_run": "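Same-well multiplex: following 16 h treatment of HEK 293T cells carrying a UAS-driven beta-lactamase reporter with compound and agonist (3 nM final), and a 2 h FRET substrate step, CellTiter-Glo was added and luminescence read after 30 min.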"}}, "note": "Inconclusive means that the source gave no clear call. Such entries were picked first, then a sample of the others. Potencies of inconclusive entries are left out as doubtful fits. Activity calls are given as the source filed them. Unless noted, calls follow the shape of the dose curve; as a rule, active = well fitted curve in the direction sought with a large enough effect in the repeat runs; inconclusive = weak or mixed curves; inactive = no such curve, though single readings can be large; an effect the other way counts as inactive or inconclusive. Potency is read from the fitted curve at half-maximal effect; tags tell the direction and shape of the fitted curve or compound fluorescence and quenching.", "data": [{"smiles": "CCCC(=O)c1cc(O)c(O)cc1O", "values": [{"measurement": "Potency", "setting": "[1]", "value": "inconclusive [falling, partial curve]"}, {"measurement": "activation", "setting": "[2]", "value": "inconclusive: -15.2%"}, {"measurement": "Potency", "setting": "[3]", "value": "inconclusive [fluorescent, full curve, poor fit]"}, {"measurement": "Potency", "setting": "[4]", "value": "inconclusive [rising, single point]"}, {"measurement": "Potency", "setting": "[5]", "value": "inconclusive"}, {"measurement": "Potency", "setting": "[6]", "value": "inconclusive [cytotoxic, full curve, poor fit]"}, {"measurement": "Potency", "setting": "[7]", "value": "inconclusive [cytotoxic, partial curve]"}, {"measurement": "Potency", "setting": "[8]", "value": "inconclusive"}, {"measurement": "Potency", "setting": "[9]", "value": "inconclusive [cytotoxic]"}, {"measurement": "Potency", "setting": "[10]", "value": "inconclusive"}, {"measurement": "Potency", "setting": "[11]", "value": "inconclusive [cytotoxic, full curve, poor fit]"}, {"measurement": "Potency", "setting": "[12]", "value": "inconclusive [fluorescent]"}, {"measurement": "Potency", "setting": "[13]", "value": "inconclusive"}, {"measurement": "Potency", "setting": "[14]", "value": "inconclusive [rising, full curve, poor fit]"}, {"measurement": "Potency", "setting": "[15]", "value": "inconclusive [fluorescent, full curve, poor fit]"}, {"measurement": "Potency", "setting": "[16]", "value": "inconclusive"}, {"measurement": "Potency", "setting": "[17]", "value": "inconclusive [fluorescent, full curve, poor fit]"}, {"measurement": "Potency", "setting": "[18]", "value": "inconclusive [activator, full curve, poor fit]"}, {"measurement": "Potency", "setting": "[19]", "value": "inconclusive [cytotoxic, partial curve, poor fit]"}]}, {"smiles": "CCCCCCCCCC[N+](C)(CCCCCCCCCC)CCC[Si](OC)(OC)OC", "values": [{"measurement": "Potency", "setting": "[1]", "value": "inconclusive [falling, partial curve, poor fit]"}, {"measurement": "Potency", "setting": "[2]", "value": "inconclusive [cytotoxic]"}, {"measurement": "Potency", "setting": "[3]", "value": "inconclusive [cytotoxic, partial curve]"}, {"measurement": "Potency", "setting": "[4]", "value": "active: 30.9 µM"}, {"measurement": "Potency", "setting": "[5]", "value": "inconclusive [partial curve]"}, {"measurement": "Potency", "setting": "[6]", "value": "inconclusive [cytotoxic, partial curve]"}, {"measurement": "Potency", "setting": "[8]", "value": "inconclusive [falling, partial curve]"}, {"measurement": "Potency", "setting": "[11]", "value": "active: 9.77 µM"}, {"measurement": "Potency", "setting": "[14]", "value": "active: 8.71 µM"}, {"measurement": "Potency", "setting": "[16]", "value": "inconclusive [falling, partial curve]"}, {"measurement": "activation", "setting": "[17]", "value": "inconclusive: 4.24%"}, {"measurement": "Potency", "setting": "[19]", "value": "inconclusive [cytotoxic, partial curve]"}]}]}
